Data reported in PubChem BioAssay AID488969 (Vanderbilt High Throughput Screening Facility, 2010).
Whole data set: some 110,000 compounds, median “z-score” near -0.1, cut for the highest 2% near 2. This is one part of the list. Calls of active or inactive are those of the source.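 Rule for the calls: active = z-score in the third read window above 3 or below -3; inactive = the rest.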

molecular target: Metabotropic glutamate receptor 8 (Rattus norvegicus) (UniProt P70579); test: rat mGluR8 modulators via GIRK flux, primary screen, cell-based, thallium flux, HTS (AID 488969); details: HEK293 rat mGluR8, GIRK (G protein-gated inwardly rectifying potassium channel) thallium flux, FluoZin2; at 10 µM; stronger effect = higher value; submaximal glutamate (EC20) added with thallium
UniProt P70579, sequence (P70579 whole entry, looked up): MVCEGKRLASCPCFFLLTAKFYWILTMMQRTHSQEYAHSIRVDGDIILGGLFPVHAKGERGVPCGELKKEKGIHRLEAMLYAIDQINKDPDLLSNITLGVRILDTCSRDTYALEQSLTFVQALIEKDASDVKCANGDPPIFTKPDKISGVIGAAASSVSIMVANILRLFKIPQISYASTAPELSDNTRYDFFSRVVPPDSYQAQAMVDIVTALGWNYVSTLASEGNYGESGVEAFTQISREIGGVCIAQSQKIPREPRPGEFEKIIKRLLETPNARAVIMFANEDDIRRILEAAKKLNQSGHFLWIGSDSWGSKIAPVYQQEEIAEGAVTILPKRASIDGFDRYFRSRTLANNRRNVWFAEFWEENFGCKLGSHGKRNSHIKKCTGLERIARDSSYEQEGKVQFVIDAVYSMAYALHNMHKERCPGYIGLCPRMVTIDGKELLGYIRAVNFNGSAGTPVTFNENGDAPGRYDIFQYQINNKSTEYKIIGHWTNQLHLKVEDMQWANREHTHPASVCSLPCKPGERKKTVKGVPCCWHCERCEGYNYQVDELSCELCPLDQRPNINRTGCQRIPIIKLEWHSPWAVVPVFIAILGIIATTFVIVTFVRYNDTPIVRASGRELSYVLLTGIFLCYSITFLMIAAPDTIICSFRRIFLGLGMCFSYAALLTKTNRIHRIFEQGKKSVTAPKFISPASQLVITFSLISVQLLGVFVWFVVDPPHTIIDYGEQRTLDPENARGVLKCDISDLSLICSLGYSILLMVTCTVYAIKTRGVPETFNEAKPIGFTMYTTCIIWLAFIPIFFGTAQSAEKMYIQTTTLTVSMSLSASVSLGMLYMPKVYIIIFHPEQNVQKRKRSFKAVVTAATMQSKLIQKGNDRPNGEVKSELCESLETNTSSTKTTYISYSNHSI

| Compound | z-score |
| --- | --- |
| c1ccc(-n2nnnc2SCc2cn3cccnc3n2)cc1 | 0.758 |
| Cn1c2ccccc2c(=O)n2c(=O)c3ccccc3cc12 | -0.405 |
| O=C(C[n+]1cc(-c2ccccc2)n2c1CCCCC2)c1ccc(Cl)cc1 | 0.0753 |
| COC(=O)CSc1nc(-c2ccc(F)cc2)cc(C(F)(F)F)n1 | 0.236 |
| Nc1ccc(-c2cc(-c3cccc(N)c3)nc(-c3ccccc3)n2)cc1 | -0.0612 |
| Cc1ccc(S(=O)(=O)N(C)Cc2nc(-c3ccncc3)no2)cc1 | 0.177 |
| Cn1c(=O)c2c(nc(NCc3ccccc3)n2CCCc2ccccc2)n(C)c1=O | -0.871 |
| O=C1C2CC=CCC2C(=O)N1c1ccc(OCC(O)Cn2nnc3ccccc32)cc1 (stereo unspecified) | -0.224 |
| CCC(=O)N1CCc2cc(S(=O)(=O)NCCCOC)ccc21 | -0.216 |
| N#Cc1ccc(Nc2ccccc2)c(N)c1 | -0.0201 |
| CC(=O)N(C)c1nc(-c2ccc(Cl)cc2)cs1 | -0.168 |
| N/C(=N\OC(=O)CSc1ccccc1)c1cccc([N+](=O)[O-])c1 | -0.477 |
| COc1ccc(/C=C/C(=O)Nc2c(C)nn(C)c2C)cc1COc1ccc(Cl)cc1Br | -0.0447 |
| O=C(CC(c1ccccc1)c1ccccc1)Nc1ncn[nH]1 | 0.56 |
| O=C(NCCc1ccccc1)c1cc2sccc2n1Cc1ccccc1 | -0.126 |
| CCOC(=O)c1c(NC(=S)Nc2ccccc2C)sc2c1CCC2 | 0.265 |
| COc1ccc(CCN(Cc2cccs2)S(=O)(=O)c2ccc(S(=O)(=O)N3CCCCCC3)cc2)cc1OC | 0.158 |
| O=C1c2ccccc2C(Nc2ccc(Cl)cn2)N1c1ccccn1 (stereo unspecified) | -2.07 |
| COc1cc(CCC(=O)OCC(=O)Nc2ccccc2C(C)C)cc(OC)c1OC | 0.11 |
| COc1ccccc1N(CN1CCCC1=O)C(=O)c1c(F)cccc1F | -0.429 |
| CCCN(CCC)S(=O)(=O)c1ccc(C(=O)NCc2ccc3c(c2)OCO3)cc1 | 0.635 |
| O=C(Cn1[nH]c(=O)c2ccccc2c1=O)OCC(=O)N(Cc1ccccc1)Cc1ccccc1 | -0.414 |
| COc1ccc(/C=C\C(=O)Oc2cccc(/C=N/NC(=O)Cc3ccc(OC)c(OC)c3)c2)cc1 | 0.177 |

| Compound | z-score |
| --- | --- |
| CCOc1ccc(Br)cc1S(=O)(=O)NCCN(C)C | -0.463 |
| CCN(C(=S)Nc1ccc(Oc2ccccc2)cc1)c1ccccc1 | 0.235 |
| COc1ccc(-c2cc(=O)oc3c(C)c(O)c(CN(C)C)cc23)cc1 | -0.711 |
| Cc1c(C(=O)N2CCCC2)nnn1-c1nonc1N | -0.219 |
| O=C(C1CCN(c2nnc(-n3cccc3)s2)CC1)N1CCc2ccccc2C1 | -0.67 |
| O=C(Nc1ccc(Cl)cc1C(=O)Nc1ccc(Br)cn1)c1ccco1 | -0.323 |
| Clc1ccc(CN2CCC(Cc3ccccc3)CC2)cc1 | -0.189 |
| Cc1cccc2nc(CSc3nnnn3-c3ccccc3)cn12 | -0.527 |
| CN(C)S(=O)(=O)c1cccc(-c2nnc(SCc3cc(Cl)cc4c3OCOC4)n2N)c1 | -0.286 |
| COc1ccc(C(=O)CCc2nc3ccccc3s2)cc1 | -0.0445 |
| CCOC(=O)CCP(=O)(O)C(O)c1ccccc1 (stereo unspecified) | -0.101 |
| O=C(CN1CCOCC1)Nc1cc(Cl)ccc1Cl | -0.344 |
| CC(C)(C)c1ccc(OCCn2ccccc2=O)cc1 | 1.01 |
| Cc1nn(C(C)C(=O)N2CCOCC2)c(C)c1[N+](=O)[O-] (stereo unspecified) | 0.00235 |
| COc1cc(N)cc(NC(=O)c2ccncc2)c1 | -0.0988 |
| CCC12C(=O)C(CC)(C(c3ccccc3)=C1c1ccccc1)[C@@H]1C(=O)N(c3ccc(C)cc3)C(=O)C12 (stereo partly specified) | 0.068 |
| CCOCC(=O)Nc1nc2ccc(S(C)(=O)=O)cc2s1 | 0.208 |
| O=C(CN1CCN(c2ccccc2)CC1)Nc1ccc(Oc2ccccc2)cc1 | 0.705 |
| C/C(=N\NC(=O)Cc1csc(N2CCOCC2)n1)c1ccccc1 | -0.11 |
| COc1ccc(N(CC(=O)N2CCN(Cc3ccc4c(c3)OCO4)CC2)S(C)(=O)=O)cc1OC | -0.325 |
| COc1ccc2nc(-c3ccc(N)cc3)[nH]c2c1 | -0.0289 |
| COc1ccc(-c2ccc3c(N)c(C(=O)c4cccc(OC)c4)sc3n2)cc1 | -0.49 |
| CCc1ccccc1NC(=O)c1ccc(-n2c(C)ccc2C)cc1 | -0.16 |

| Compound | z-score |
| --- | --- |
| Cc1c(NC(=O)CSc2ccc3c(c2)OCCO3)c(=O)n(-c2ccccc2)n1C | 0.533 |
| Cc1cccc(NC(=O)Nc2ccc3c(c2)N(C)C(=O)CS3)n1 | -0.354 |
| O=C(O)c1ccc(-n2c(-c3cc(-c4ccco4)[nH]n3)n[nH]c2=S)cc1 | -0.029 |
| COC(=O)c1ccc(C(=O)NC(=S)Nc2nc3c(s2)CCCC3)cc1 | active: 9.51 |
| O=C(CN(Cc1ccccc1F)S(=O)(=O)c1ccc(Cl)cc1)NCCCO | -0.76 |
| CCOc1ccc(C2C(C(=O)NC)=C(C)Nc3nc4ccccc4n32)cc1OC (stereo unspecified) | 0.904 |
| O=C(COc1ncnc2scc(-c3ccc(Cl)cc3)c12)NCc1ccco1 | -0.351 |
| COc1cc(/C=N/O)cc(Br)c1OS(=O)(=O)c1ccc(C)cc1 | -0.227 |
| Cc1ccc2cc(CN(Cc3cccs3)Cc3nnnn3CC3CCCO3)c(=O)[nH]c2c1C (stereo unspecified) | -0.542 |
| COc1ccc(/C=N\NC(=O)c2sc(N)nc2C)cc1OC | 0.182 |
| CCOc1ccc(N2C(=O)CC(SC(=NC)Nc3ccc4c(c3)OCO4)C2=O)cc1 (stereo unspecified) | 0.126 |
| Cc1cc(C)cc(N(CC(=O)N2CCOCC2)S(=O)(=O)c2ccccc2)c1 | -0.336 |
| O=C(NCc1ccc(-c2nc3ccccc3s2)cc1)c1ccco1 | -0.111 |
| CC(C)=C1C(=O)NN(c2ccc(C)c(Cl)c2)C1=O | -0.209 |
| COC(=O)c1ccc(CSc2nnc(Nc3ccccc3OC)s2)o1 | active: 4.01 |
| O=C(COc1cccc(C(F)(F)F)c1)NCCCN1CCCC1=O | -0.747 |
| Cc1ccc(CN2CC(C(=O)Nc3nnc(SCc4c(Cl)cccc4Cl)s3)CC2=O)cc1 (stereo unspecified) | 0.195 |
| O=C(Nc1cccc(O)c1)c1cc(-c2ccco2)on1 | -0.103 |
| O=C(COc1ncnc2ccccc12)c1ccc2c(c1)OCCO2 | 0.493 |
| COC(=O)Cc1ccc(NC(=O)c2ccc(Br)o2)cc1 | -0.0309 |
| O=C(Nc1cc2nn(-c3ccccc3)nc2cc1Cl)c1ccco1 | 0.192 |
| COc1ccc(C=O)cc1COc1ccccc1F | -0.294 |
| S=C(NCCN1CCOCC1)N/N=C/c1c2ccccc2cc2ccccc12 | 0.702 |

| Compound | z-score |
| --- | --- |
| COc1ccccc1NC(=O)CN1CCC(C(=O)c2ccc(F)cc2)CC1 | -1.26 |
| CC(C)(C)NC(=O)C1Cc2ccccc2CN1C(=O)Nc1cccc(Cl)c1 (stereo unspecified) | -0.143 |
| Clc1ccc(CSc2nnc([C@@H]3CCCN3)o2)cc1 | 0.791 |
| COc1ccc2oc(=N)c(-c3nnc4n3CCCCC4)cc2c1 | -0.809 |
| O=C(NC1CCCCC1)C1CC=CCC1C(=O)OCC(Cl)=C(Cl)Cl (stereo unspecified) | -0.34 |
| Cc1ccc(C(=O)O)cc1N1C(=O)c2cccc3cc(Br)cc(c23)C1=O | -0.601 |
| CCOC(=O)/C(=N\NC(=O)c1ccccc1)c1ccccc1 | 1.08 |
| COC(=O)C(Nc1ccccc1Cl)(c1cc(C)c(O)c(C)c1)C(F)(F)F (stereo unspecified) | 0.323 |
| CCOc1ccccc1-c1cc(C(=O)N/N=C/c2ccc3c(c2)OCO3)c2ccccc2n1 | -0.832 |
| O=C(Cn1nc(Cc2cccnc2)c2ccccc2c1=O)NCc1ccc(F)cc1 | 0.475 |
| COc1cc(-c2nc3cnccn3c2Nc2c(C)cccc2C)ccc1O | -0.343 |
| CC(=NCCc1c(C)[nH]c2ccc(C)cc12)C1=C(O)CC(c2ccccc2)CC1=O (stereo unspecified) | 0.516 |
| O=C(CSC1=NCCS1)N1CCOCC1 | 0.019 |
| O=C(NNC(=O)c1ccccc1Br)c1ccc(Cl)cc1 | 0.075 |
| CCN(CC)CCNC(=O)c1c(O)c2c([nH]c1=O)CCCC2 | -1.33 |
| S=C(NCc1cccnc1)Nc1cccc2ccccc12 | -0.284 |
| CCCNC(=O)C(NS(=O)(=O)c1ccc2c(c1)c(=O)n(C)c(=O)n2C)c1ccccc1 (stereo unspecified) | -0.661 |
| CS(=O)(=O)n1nc(-c2ccccc2)nc1NCc1ccco1 | -0.193 |
| CCOc1ccc(NC(=O)Nc2cccs2)cc1 | 2.37 |
| CCC1=Nc2cc(C(=O)NCCCOC)ccc2Sc2ccccc21 | -0.248 |
| COc1ccc(-c2[nH]c(-c3ccc(C)cc3)nc2SCC(=O)NCc2ccco2)cc1OC | 0.0225 |
| Cc1ccc(CNC(=O)C2CCCN(S(=O)(=O)c3c(C)noc3C)C2)cc1 (stereo unspecified) | -0.152 |
| Cc1ccc2[nH]c(C)c(CCNC(=O)c3cc4cc([N+](=O)[O-])ccc4oc3=O)c2c1 | -1.05 |

| Compound | z-score |
| --- | --- |
| CCC(=O)Nc1c(C#N)c2nc3ccccc3nc2n1C1CCCCC1 | -0.149 |
| O=C(CCC(=O)c1ccccc1)Nc1cccnc1 | -0.589 |
| C=C(C(=O)c1ccccc1)C(CC(=O)c1ccccc1)c1ccccc1 (stereo unspecified) | -0.0913 |
| Cc1ccccc1-c1nc(CS(=O)CC(=O)NCc2ccccc2)c(C)o1 (stereo unspecified) | 0.0141 |
| COc1ccc(-c2c(NC(=O)c3ccco3)n(C)c3ccccc3c2=O)cc1 | -0.596 |
| Cc1cc(C(=O)Cn2ncc(Cl)c(Cl)c2=O)c(C)n1CC(F)(F)F | -0.573 |
| Cc1ccc(S(=O)(=O)N(CC(=O)N/N=C/c2ccc(F)cc2)c2cccc3cccnc23)cc1 | -0.303 |
| CC(NC(=O)c1ccc(Cl)s1)C1CCCO1 (stereo unspecified) | 0.0804 |
| Cc1ccsc1/C=N/NC(=O)c1c[nH]c2ccccc12 | 0.29 |
| CCN1CCN(C(=O)c2ccc3c(=O)n(CCC4=CCCCC4)c(=O)[nH]c3c2)CC1 | -0.941 |
| O=C(CSc1nnc(Cc2cccs2)n1-c1ccccc1)NC1CCCCC1 | -0.101 |
| CC(C)(C)SCCNC(=O)COc1ccc(Cl)cc1 | -0.647 |
| Cc1ccccc1C(=O)N=c1sccn1C | -0.187 |
| COc1ccc2c(C)cc(SCc3c(C)noc3C)nc2c1 | -0.0336 |
| Cc1ccc(-c2nc(CS(=O)CC(=O)NCCC(C)C)c(C)o2)cc1 (stereo unspecified) | 0.18 |
| C=CCN1C(=O)C2(C(C#N)=C(N)Oc3n[nH]c(CCC)c32)c2ccccc21 (stereo unspecified) | 0.176 |
| Cc1ccc(NC2(c3nnnn3-c3c(C)cccc3C)CCCCC2)cc1 | 0.238 |
| CN1CCN(S(=O)(=O)c2ccc(NC(=O)Cc3cccs3)cc2)CC1 | -0.217 |
| Cc1cc(C)n(-c2ccc(C(=O)OCC(=O)Nc3ccc(Cl)cc3[N+](=O)[O-])cc2)n1 | -0.362 |
